This note sets out measurements from the GPR68 mutational scans of Howard et al. (2025).

To fix the notation:
B1: GPR68, Q15743 (parent)
chain: MGNITADNSSMSCTIDHTIHQTLAPVVYVTVLVVGFPANCLSLYFGYLQIKARNELGVYLCNLTVADLFYICSLPFWLQYVLQHDNWSHGDLSCQVCGILLYENIYISVGFLCCISVDRYLAVAHPFRFHQFRTLKAAVGVSVVIWAKELLTSIYFLMHEEVIEDENQHRVCFEHYPIQAWQRAINYYRFLVGFLFPICLLLASYQGILRAVRRSHGTQKSRKDQIQRLVLSTVVIFLACFLPYHVLLLVRSVWEASCDFAKGVFNAYHFSLLLTSFNCVADPVLYCFVSETTHRDLARLRGACLAFLTCSRTGRAREAYPLGAPEASGKSGAQGEEPELLTKLHPAFQTPNSPGSGGFPTGRLA

Scores with a large standard error are left out. Two further conditions of the source, in which the scores hardly spread, are not listed. In variant names, del marks residues removed and ins residues inserted between the two positions. For some of these results: The concentration of ogerin is not given here.

Variants of B1 are the subject of series [1]. Description: cAMP reporter score (Enrich2 score, wild type = 0); higher = more signal; HEK293T, FACS bins.
The variants in series [2] derive from B1. Description: surface expression score (Enrich2 score, wild type = 0); higher = more signal; HEK293T, FACS bins.

In the case of R128F, the cAMP reporter score is -0.64 in series [1] (pH 5.5); -0.86 in series [1] (pH 6); -2.62 in series [1] (pH 6, modulator: ogerin); -0.505 in series [1] (pH 6.5, modulator: ogerin). Also, the surface expression score in series [2] is -1.93.

With R128S, the cAMP reporter score was 0.549 in series [1] (pH 5.5); -0.682 in series [1] (pH 6); 0.746 in series [1] (pH 6, modulator: ogerin); -1.91 in series [1] (pH 6.5, modulator: ogerin).

With R128W, the cAMP reporter score in series [1] (pH 5.5) is -1.2; in series [1] (pH 6), -0.208; in series [1] (pH 6, modulator: ogerin) it was -1.24; in series [1] (pH 6.5, modulator: ogerin), -1.63. Also, in series [2], the surface expression score was -1.91.

Consider R128Q, for which the cAMP reporter score in series [1] (pH 5.5) was -0.516; in series [1] (pH 6) it was -0.328; in series [1] (pH 6, modulator: ogerin), -0.738; in series [1] (pH 6.5, modulator: ogerin), -0.916. Also, the surface expression score in series [2] is -1.15.

For P126_F127del, the cAMP reporter score in series [1] (pH 5.5) was -1.09; in series [1] (pH 6), -1.53; in series [1] (pH 6, modulator: ogerin), -1.56; in series [1] (pH 6.5, modulator: ogerin), -0.417. Further, the surface expression score in series [2] was -2.25.

Turning to A124_P126del, the cAMP reporter score in series [1] (pH 5.5) is -1.79; in series [1] (pH 6) it was -2.08; in series [1] (pH 6, modulator: ogerin) it was -1.92; in series [1] (pH 6.5, modulator: ogerin), -0.117. The surface expression score in series [2] was -2.13.

Turning to F129_H130del, the cAMP reporter score in series [1] (pH 5.5) is -2.21; in series [1] (pH 6) it was -1.76; in series [1] (pH 6, modulator: ogerin), -2.01; in series [1] (pH 6.5, modulator: ogerin), -1.25. Besides, the surface expression score in series [2] was -2.32.

In the case of Q131_F132insGSG, the cAMP reporter score in series [1] (pH 5.5) is -1.06. In series [2], the surface expression score is -1.94.

Take A124del: the cAMP reporter score in series [1] (pH 5.5) is -0.764; in series [1] (pH 6) it was -0.43; in series [1] (pH 6, modulator: ogerin), -1.14; in series [1] (pH 6.5, modulator: ogerin), -1.26.

Turning to H125_P126insG, the cAMP reporter score is -0.408 in series [1] (pH 5.5) and -2.18 in series [1] (pH 6).

On to A124W, for which the cAMP reporter score was -1.55 in series [1] (pH 5.5); 0.763 in series [1] (pH 6); -2.27 in series [1] (pH 6, modulator: ogerin). Further, the surface expression score in series [2] is -3.42.

As for A124P, the cAMP reporter score in series [1] (pH 5.5) was -0.906; in series [1] (pH 6), -0.117; in series [1] (pH 6, modulator: ogerin), -1.35; in series [1] (pH 6.5, modulator: ogerin), -0.7. Moreover, the surface expression score in series [2] is -1.2.

With A124R, the cAMP reporter score in series [1] (pH 5.5) is -0.06; in series [1] (pH 6) it was -0.687; in series [1] (pH 6, modulator: ogerin), -0.577; in series [1] (pH 6.5, modulator: ogerin), -0.077. Besides, in series [2], the surface expression score is -0.996.

In the case of A124N, the cAMP reporter score is -0.482 in series [1] (pH 5.5); -0.684 in series [1] (pH 6); -0.801 in series [1] (pH 6, modulator: ogerin); -1.7 in series [1] (pH 6.5, modulator: ogerin). Also, in series [2], the surface expression score is -1.5.

Consider A124Y, for which the cAMP reporter score was -0.564 in series [1] (pH 5.5); -0.359 in series [1] (pH 6); -0.759 in series [1] (pH 6, modulator: ogerin); -0.875 in series [1] (pH 6.5, modulator: ogerin). In addition, the surface expression score in series [2] is -1.7.

For the variant A124S, the cAMP reporter score was 0.495 in series [1] (pH 5.5); -0.684 in series [1] (pH 6); -0.152 in series [1] (pH 6, modulator: ogerin); -0.447 in series [1] (pH 6.5, modulator: ogerin).

Consider A124M, for which the cAMP reporter score in series [1] (pH 5.5) is -0.091; in series [1] (pH 6), -0.221; in series [1] (pH 6, modulator: ogerin), 0.229; in series [1] (pH 6.5, modulator: ogerin), -0.652. Further, in series [2], the surface expression score is -1.52.

Turning to A124Q, the cAMP reporter score was -0.403 in series [1] (pH 5.5); -3.19 in series [1] (pH 6, modulator: ogerin); -3.64 in series [1] (pH 6.5, modulator: ogerin). In series [2], the surface expression score is -1.44.

As for A124V, the cAMP reporter score turned out to be 0.811 in series [1] (pH 5.5); 2.75 in series [1] (pH 6); 1.1 in series [1] (pH 6, modulator: ogerin); 2.12 in series [1] (pH 6.5, modulator: ogerin). Also, in series [2], the surface expression score is 1.14.

As to A124K, the cAMP reporter score in series [1] (pH 5.5) is -1.24; in series [1] (pH 6), -1.1; in series [1] (pH 6, modulator: ogerin), -0.466. The surface expression score in series [2] was -1.08.

As to A124L, the cAMP reporter score in series [1] (pH 5.5) is -0.789; in series [1] (pH 6), -1.15; in series [1] (pH 6, modulator: ogerin), -2.29. The surface expression score in series [2] is -0.424.

For the variant A124T, the cAMP reporter score in series [1] (pH 5.5) was -0.657; in series [1] (pH 6), -0.258; in series [1] (pH 6, modulator: ogerin) it was -0.68. Also, in series [2], the surface expression score was -2.3.

With Q131del, the cAMP reporter score in series [1] (pH 5.5) is -1.14; in series [1] (pH 6) it was -1.39; in series [1] (pH 6, modulator: ogerin) it was -0.84; in series [1] (pH 6.5, modulator: ogerin), -1.21. Besides, the surface expression score in series [2] is -2.49.

On to F127_R128del, for which the cAMP reporter score in series [1] (pH 5.5) was -1.28; in series [1] (pH 6) it was -1.06; in series [1] (pH 6, modulator: ogerin), -1.78; in series [1] (pH 6.5, modulator: ogerin), -1.42. Moreover, the surface expression score in series [2] was -2.22.

Take H130_Q131del: the cAMP reporter score in series [1] (pH 5.5) is -1.34; in series [1] (pH 6), -0.865; in series [1] (pH 6, modulator: ogerin), -1.96; in series [1] (pH 6.5, modulator: ogerin), -0.488. For the same variant, the surface expression score in series [2] was -2.56.

Take P126_R128del: the cAMP reporter score in series [1] (pH 5.5) was -1.21; in series [1] (pH 6), -0.528; in series [1] (pH 6, modulator: ogerin) it was -2.7; in series [1] (pH 6.5, modulator: ogerin), -1.16. Moreover, the surface expression score in series [2] was -2.94.

P126del: the cAMP reporter score was -1.38 in series [1] (pH 5.5); -1.18 in series [1] (pH 6); -0.793 in series [1] (pH 6, modulator: ogerin); -1.54 in series [1] (pH 6.5, modulator: ogerin). Further, the surface expression score in series [2] is -1.39.

For F132D, the cAMP reporter score in series [1] (pH 5.5) is -1.24; in series [1] (pH 6), -1.42; in series [1] (pH 6, modulator: ogerin), -1.2; in series [1] (pH 6.5, modulator: ogerin), -0.657.

F132H: the cAMP reporter score was -0.924 in series [1] (pH 5.5); -1.51 in series [1] (pH 6); -1.55 in series [1] (pH 6, modulator: ogerin); -1.3 in series [1] (pH 6.5, modulator: ogerin). Besides, in series [2], the surface expression score is -2.67.

Turning to F132G, the cAMP reporter score is -0.152 in series [1] (pH 5.5); -1.43 in series [1] (pH 6, modulator: ogerin); -0.048 in series [1] (pH 6.5, modulator: ogerin).

For F132A, the cAMP reporter score in series [1] (pH 5.5) is 0.541; in series [1] (pH 6) it was -1.67; in series [1] (pH 6, modulator: ogerin), 0.103. Moreover, the surface expression score in series [2] was found to be 0.706.

In the case of F132C, the cAMP reporter score in series [1] (pH 5.5) is -0.855; in series [1] (pH 6), -0.28; in series [1] (pH 6, modulator: ogerin), -0.564; in series [1] (pH 6.5, modulator: ogerin), -0.624. The surface expression score in series [2] is -0.921.

As for H125_P126insGSG, the cAMP reporter score in series [1] (pH 5.5) was -1.68; in series [1] (pH 6), -0.559.

For the variant F129del, the cAMP reporter score in series [1] (pH 5.5) is -0.854; in series [1] (pH 6) it was -1.39; in series [1] (pH 6.5, modulator: ogerin), -0.753. The surface expression score in series [2] was -0.618.
